Results are given in words; binding and its absence hold for the method and conditions named. In cells and extracts the contact can be indirect. Some results given as binding are weak or reduced against the parent protein; the word gives no strength.
What was measured:
Test in all cases: co-IP; HEK293T cells transfected with 3xHA-GPCR and 2xFlag-MRAP1 or MRAP2; GPCR immunoprecipitated with rabbit anti-HA, Protein A/G agarose, overnight at 4°C; MRAP detected by mouse anti-Flag blot
[1] = target: Adrenergic receptor, beta 3 (mouse) (UniProt P25962)
[2] = target: T1, G protein‐coupled receptor 151 (mouse) (UniProt Q7TSN6)
T1 sequence: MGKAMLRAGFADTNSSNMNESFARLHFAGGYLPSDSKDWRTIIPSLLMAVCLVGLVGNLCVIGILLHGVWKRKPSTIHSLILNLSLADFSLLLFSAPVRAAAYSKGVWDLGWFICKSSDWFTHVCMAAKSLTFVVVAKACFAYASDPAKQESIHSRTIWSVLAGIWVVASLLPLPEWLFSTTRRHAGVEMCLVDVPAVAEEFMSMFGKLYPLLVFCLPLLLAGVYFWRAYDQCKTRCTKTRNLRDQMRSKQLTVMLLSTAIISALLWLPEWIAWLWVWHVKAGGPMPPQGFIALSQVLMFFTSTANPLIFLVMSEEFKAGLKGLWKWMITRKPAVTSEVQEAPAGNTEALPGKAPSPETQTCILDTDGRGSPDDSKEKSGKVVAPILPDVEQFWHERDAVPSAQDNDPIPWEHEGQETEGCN

Chains of the proteins cited; added tags and fusions are not shown.
UniProt P25962: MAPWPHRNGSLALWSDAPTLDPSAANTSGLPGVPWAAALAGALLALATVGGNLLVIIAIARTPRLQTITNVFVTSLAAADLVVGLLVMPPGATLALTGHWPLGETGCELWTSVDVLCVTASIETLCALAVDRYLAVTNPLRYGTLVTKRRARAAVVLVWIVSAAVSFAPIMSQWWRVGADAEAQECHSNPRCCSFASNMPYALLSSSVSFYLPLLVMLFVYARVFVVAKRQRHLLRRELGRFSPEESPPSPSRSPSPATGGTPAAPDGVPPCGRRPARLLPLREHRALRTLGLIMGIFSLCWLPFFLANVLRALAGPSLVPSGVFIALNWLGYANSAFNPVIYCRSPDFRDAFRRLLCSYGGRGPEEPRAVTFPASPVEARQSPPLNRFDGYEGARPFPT
UniProt Q9EQQ3: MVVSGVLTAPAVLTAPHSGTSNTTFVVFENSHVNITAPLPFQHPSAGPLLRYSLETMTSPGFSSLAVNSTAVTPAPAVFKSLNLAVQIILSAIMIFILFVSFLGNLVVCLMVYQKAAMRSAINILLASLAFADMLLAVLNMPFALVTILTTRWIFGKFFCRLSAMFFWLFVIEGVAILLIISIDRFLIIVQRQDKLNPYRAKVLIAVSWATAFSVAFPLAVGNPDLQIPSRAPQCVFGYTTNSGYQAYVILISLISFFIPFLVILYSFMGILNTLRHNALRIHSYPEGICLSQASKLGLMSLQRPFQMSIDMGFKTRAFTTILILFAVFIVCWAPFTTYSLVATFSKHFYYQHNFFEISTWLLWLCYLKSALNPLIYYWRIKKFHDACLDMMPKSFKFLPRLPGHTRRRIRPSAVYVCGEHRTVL
UniProt Q8BFQ3: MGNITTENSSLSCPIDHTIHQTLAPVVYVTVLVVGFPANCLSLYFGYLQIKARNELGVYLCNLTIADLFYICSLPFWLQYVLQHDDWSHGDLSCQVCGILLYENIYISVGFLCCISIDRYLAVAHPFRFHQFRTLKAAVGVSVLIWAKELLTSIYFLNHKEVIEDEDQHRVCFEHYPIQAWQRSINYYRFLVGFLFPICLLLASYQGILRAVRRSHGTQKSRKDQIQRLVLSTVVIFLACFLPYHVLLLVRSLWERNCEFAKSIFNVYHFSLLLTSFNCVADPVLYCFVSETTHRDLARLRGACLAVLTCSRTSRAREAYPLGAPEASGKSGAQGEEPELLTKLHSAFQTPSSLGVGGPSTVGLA
UniProt Q6X632: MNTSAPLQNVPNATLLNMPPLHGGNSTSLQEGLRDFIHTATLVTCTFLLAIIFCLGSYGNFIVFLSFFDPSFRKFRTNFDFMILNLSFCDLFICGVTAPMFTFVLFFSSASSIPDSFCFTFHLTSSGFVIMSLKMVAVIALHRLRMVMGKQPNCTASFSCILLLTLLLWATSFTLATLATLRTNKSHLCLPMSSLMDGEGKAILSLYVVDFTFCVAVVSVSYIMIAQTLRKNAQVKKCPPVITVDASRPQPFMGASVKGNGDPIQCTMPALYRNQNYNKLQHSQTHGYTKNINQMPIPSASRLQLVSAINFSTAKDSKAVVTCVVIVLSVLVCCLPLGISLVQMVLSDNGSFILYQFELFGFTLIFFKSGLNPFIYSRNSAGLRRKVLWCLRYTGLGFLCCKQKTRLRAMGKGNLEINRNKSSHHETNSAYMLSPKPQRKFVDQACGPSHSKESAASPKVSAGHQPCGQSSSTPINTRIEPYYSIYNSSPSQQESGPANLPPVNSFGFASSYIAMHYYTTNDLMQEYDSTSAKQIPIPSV
UniProt P30875: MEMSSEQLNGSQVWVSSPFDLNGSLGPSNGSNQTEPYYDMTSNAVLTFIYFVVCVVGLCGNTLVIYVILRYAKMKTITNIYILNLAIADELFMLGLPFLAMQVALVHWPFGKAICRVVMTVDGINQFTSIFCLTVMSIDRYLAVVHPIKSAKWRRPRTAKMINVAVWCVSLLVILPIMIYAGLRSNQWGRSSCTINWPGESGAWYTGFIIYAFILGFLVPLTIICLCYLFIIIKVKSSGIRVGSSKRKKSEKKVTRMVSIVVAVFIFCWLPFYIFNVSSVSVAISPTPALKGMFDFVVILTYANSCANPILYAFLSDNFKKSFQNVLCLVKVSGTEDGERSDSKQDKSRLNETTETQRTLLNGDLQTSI
UniProt P30935: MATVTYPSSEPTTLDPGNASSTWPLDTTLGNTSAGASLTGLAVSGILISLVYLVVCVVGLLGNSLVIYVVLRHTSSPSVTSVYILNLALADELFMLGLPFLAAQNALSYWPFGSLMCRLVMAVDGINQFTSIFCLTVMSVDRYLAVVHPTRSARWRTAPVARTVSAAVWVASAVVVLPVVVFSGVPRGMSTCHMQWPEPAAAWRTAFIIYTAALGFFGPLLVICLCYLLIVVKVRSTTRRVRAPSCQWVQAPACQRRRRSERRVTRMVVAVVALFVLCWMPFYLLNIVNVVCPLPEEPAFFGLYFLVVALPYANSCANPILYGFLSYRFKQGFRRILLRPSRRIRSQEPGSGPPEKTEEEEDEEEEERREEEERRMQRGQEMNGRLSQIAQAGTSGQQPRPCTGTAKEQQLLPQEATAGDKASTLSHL

[3] = target: G protein‐coupled receptor 63 (mouse) (UniProt Q9EQQ3)
[4] = target: G protein‐coupled receptor 68 (mouse) (UniProt Q8BFQ3)
[5] = target: G protein‐coupled receptor 75 (mouse) (UniProt Q6X632)
[6] = target: T2, Neuropeptide Y receptor Y2 (mouse) (UniProt P97295)
T2 sequence: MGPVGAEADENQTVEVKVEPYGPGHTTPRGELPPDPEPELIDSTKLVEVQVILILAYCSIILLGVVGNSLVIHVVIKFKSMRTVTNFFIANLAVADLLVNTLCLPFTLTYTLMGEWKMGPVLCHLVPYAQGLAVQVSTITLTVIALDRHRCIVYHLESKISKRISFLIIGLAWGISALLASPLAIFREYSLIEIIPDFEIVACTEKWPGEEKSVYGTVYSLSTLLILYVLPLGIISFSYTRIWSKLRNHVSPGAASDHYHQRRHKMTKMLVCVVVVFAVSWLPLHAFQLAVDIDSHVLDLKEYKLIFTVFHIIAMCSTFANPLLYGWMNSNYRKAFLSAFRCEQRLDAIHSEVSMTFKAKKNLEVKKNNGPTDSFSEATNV

[7] = target: T3, Neuropeptides B/W receptor 1 (mouse) (UniProt P49681)
T3 sequence: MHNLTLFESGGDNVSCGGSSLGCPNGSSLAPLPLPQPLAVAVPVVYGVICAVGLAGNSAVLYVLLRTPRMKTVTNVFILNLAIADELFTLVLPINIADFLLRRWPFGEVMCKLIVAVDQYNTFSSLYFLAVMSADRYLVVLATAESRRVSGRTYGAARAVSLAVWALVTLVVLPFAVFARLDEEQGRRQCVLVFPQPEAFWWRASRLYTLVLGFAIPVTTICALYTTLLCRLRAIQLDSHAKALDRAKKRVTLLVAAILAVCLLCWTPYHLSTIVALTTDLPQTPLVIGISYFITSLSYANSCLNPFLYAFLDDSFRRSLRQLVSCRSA

[8] = target: Somatostatin receptor 2 (mouse) (UniProt P30875)
[9] = target: Somatostatin receptor 3 (mouse) (UniProt P30935)
[10] = target: T4, Thyrotropin releasing hormone receptor (mouse) (UniProt P21761)
T4 sequence: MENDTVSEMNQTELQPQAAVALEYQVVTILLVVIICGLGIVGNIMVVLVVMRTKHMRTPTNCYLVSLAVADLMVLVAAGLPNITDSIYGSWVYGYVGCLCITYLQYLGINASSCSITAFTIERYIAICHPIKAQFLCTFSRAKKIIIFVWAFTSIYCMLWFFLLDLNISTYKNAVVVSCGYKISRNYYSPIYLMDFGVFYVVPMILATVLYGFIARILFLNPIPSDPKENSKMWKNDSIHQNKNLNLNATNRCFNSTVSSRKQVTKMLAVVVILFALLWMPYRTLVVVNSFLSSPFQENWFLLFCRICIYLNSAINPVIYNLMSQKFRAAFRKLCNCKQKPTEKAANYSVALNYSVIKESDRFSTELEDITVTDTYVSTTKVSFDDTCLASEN

B1: melanocortin receptor accessory protein MRAP1 (protein, UniProt Q9D159 1-127)
chain: MANGTDASVPLTSYEYYLDYIDLIPVDEKKLKANKHSIVIALWLSLATFVVLLFLILLYMSWSGSPQMRHSPQPQPICSWTHSFNLPLCLRRASLQTTEEPGRRAGTDQWLTQQSPSASAPGPLALP
With B1 the binding [1] was “binds”, the binding [2] was “binds” and the binding [3] was “binds”. The binding [4] was “no binding”, the binding [5] was “binds” and the binding [6] was “binds”. For the same binder, the binding [7] was “binds”, the binding [8] was “no binding” and the binding [9] was “binds”. The binding [10] was “no binding”.

B2: melanocortin receptor accessory protein MRAP2 (protein, UniProt D3Z1Q2 1-207)
chain: MEMSAQRLASNRTSPQSPSNSDYTWEYEYYEIGPVSFEGLKAHKYSIVIGFWVGLAVFVIFMFFVLTLLTKTGAPHQDNAESSERRFRMNSFVSDFGKPLESDKVFSRQGNEESRSLFHCYINEVEHLDRVKVCHQTTAIDSDVHLQEASRSSGRPEEELARFMKFDIPNFVNTEQSSFGEDDLLISEAPVLLENKPVSQTSRIDLD
For B2, the binding [1] was “binds”, the binding [2] was “binds” and the binding [3] was “binds”. For the same binder, the binding [4] was “no binding”, the binding [5] was “binds” and the binding [6] was “binds”. The binding [7] was “binds”, the binding [8] was “binds” and the binding [9] was “binds”. For the same binder, the binding [10] was “binds”.
